Part of at least one peptide drawing is inferred or uncertain, most often the ends. Some compounds share one wording; it may come from a single statement. Peptide text beside a SMILES is read from it.
Tested on: ACE
Assay: ACE inhibition, HPLC-UV at-line assay with substrate HHL
Format: biochemical
Conditions: for residual ACE activity (in % of control): substrate Hippuryl-His-Leu; for ACE inhibitory activity (in words): in vitro and in silico
[1] = 20 µM dipeptide, mean (SE and n in separate columns)

| Structure (SMILES) | residual ACE activity (in % of control) [1] | residual ACE activity (in % of control) (200 µM dipeptide, mean, n=2) | residual ACE activity (in % of control) (20 µM dipeptide, mean, n=2) | ACE inhibitory activity (in words) | residual ACE activity (in % of control) (200 µM dipeptide, mean (SE and n in separate columns)) |
| --- | --- | --- | --- | --- | --- |
| CSCC[C@H](N)C(=O)N[C@@H](CC(N)=O)C(=O)O [MN] (H-Met-Asn-OH) | MN 81.7 % of control | – | – | – | – |
| N[C@@H](Cc1ccc(O)cc1)C(=O)N[C@@H](CCC(=O)O)C(=O)O [YE] (H-Tyr-Glu-OH) | – | 89.45 % of control | – | – | – |
| CC(C)[C@H](N)C(=O)N[C@H](C(=O)O)C(C)C [VV] (H-Val-Val-OH) | – | 78.25 % of control | 72.8 % of control | – | – |
| C[C@@H](O)[C@H](NC(=O)[C@@H](N)Cc1c[nH]c2ccccc12)C(=O)O [WT] (H-Trp-Thr-OH) | – | 75.80 % of control | 89.0 % of control | ACE inhibitory activity | – |
| N[C@@H](Cc1c[nH]c2ccccc12)C(=O)N[C@@H](Cc1c[nH]c2ccccc12)C(=O)O [WW] (H-Trp-Trp-OH) | – | 31.55 % of control | 75.7 % of control | – | – |
| N[C@@H](Cc1c[nH]c2ccccc12)C(=O)N[C@@H](CC(=O)O)C(=O)O [WD] (H-Trp-Asp-OH) | – | 90.30 % of control | 88.3 % of control | ACE inhibitory activity | – |
| C[C@@H](O)[C@H](N)C(=O)N[C@@H](Cc1ccc(O)cc1)C(=O)O [TY] (H-Thr-Tyr-OH) | – | 59.25 % of control | 79.7 % of control | – | – |
| C[C@@H](O)[C@H](NC(=O)[C@@H](N)CC(=O)O)C(=O)O [DT] (H-Asp-Thr-OH) | – | – | – | ACE inhibitory activity | – |
| CC(C)[C@H](N)C(=O)N[C@@H](Cc1c[nH]cn1)C(=O)O [VH] (H-Val-His-OH) | – | 67.90 % of control | 77.1 % of control | – | – |
| CC(C)[C@H](N)C(=O)N[C@H](C(=O)O)[C@@H](C)O [VT] (H-Val-Thr-OH) | – | 73.75 % of control | 73.9 % of control | – | – |
| NCCCC[C@H](NC(=O)[C@@H](N)Cc1c[nH]c2ccccc12)C(=O)O [WK] (H-Trp-Lys-OH) | – | 69.05 % of control | 82.3 % of control | – | – |
| CC(C)[C@H](NC(=O)[C@@H](N)[C@@H](C)O)C(=O)O [TV] (H-Thr-Val-OH) | – | 89.80 % of control | – | – | – |
| CC(C)[C@H](N)C(=O)N[C@@H](CCCNC(=N)N)C(=O)O [VR] (H-Val-Arg-OH) | – | 46.10 % of control | – | – | – |
| CC[C@H](C)[C@H](NC(=O)[C@@H](N)Cc1c[nH]c2ccccc12)C(=O)O [WI, Trp-Ile] (H-Trp-Ile-OH) | – | 11.30 % of control | 67.2 % of control | – | – |
| C[C@H](NC(=O)[C@@H](N)Cc1c[nH]c2ccccc12)C(=O)O [WA] (H-Trp-Ala-OH) | – | 54.70 % of control | 82.6 % of control | – | – |
| CC(C)[C@H](N)C(=O)N[C@@H](CCC(N)=O)C(=O)O [VQ] (H-Val-Gln-OH) | – | 77.40 % of control | 68.5 % of control | – | – |
| C[C@@H](O)[C@H](NC(=O)[C@@H](N)CS)C(=O)O [CT] (H-Cys-Thr-OH) | – | – | – | ACE inhibitory activity | – |
| CC(C)[C@H](N)C(=O)N[C@@H](CO)C(=O)O [VS] (H-Val-Ser-OH) | – | 74.95 % of control | 78.1 % of control | – | – |
| C[C@@H](O)[C@H](N)C(=O)N[C@@H](Cc1c[nH]c2ccccc12)C(=O)O [TW] (H-Thr-Trp-OH) | – | 46.50 % of control | 78.3 % of control | – | – |

| Structure (SMILES) | residual ACE activity (in % of control) [1] | residual ACE activity (in % of control) (200 µM dipeptide, mean, n=2) | residual ACE activity (in % of control) (20 µM dipeptide, mean, n=2) | ACE inhibitory activity (in words) | residual ACE activity (in % of control) (200 µM dipeptide, mean (SE and n in separate columns)) |
| --- | --- | --- | --- | --- | --- |
| CC(C)C[C@H](NC(=O)[C@@H](N)C(C)C)C(=O)O [VL] (H-Val-Leu-OH) | – | 63.40 % of control | 65.5 % of control | – | – |
| N[C@@H](Cc1c[nH]c2ccccc12)C(=O)N[C@@H](CCC(=O)O)C(=O)O [WE] (H-Trp-Glu-OH) | – | 90.90 % of control | 85.5 % of control | – | – |
| NC(=O)CC[C@H](NC(=O)[C@@H](N)Cc1c[nH]c2ccccc12)C(=O)O [WQ] (H-Trp-Gln-OH) | – | 60.75 % of control | 86.3 % of control | – | – |
| CC(C)[C@H](NC(=O)[C@@H](N)Cc1c[nH]cn1)C(=O)O [HV] (H-His-Val-OH) | – | – | – | – | 2 97.50 % of control |
| CSCC[C@H](NC(=O)[C@@H](N)Cc1ccc(O)cc1)C(=O)O [YM] (H-Tyr-Met-OH) | – | 61.55 % of control | 82.6 % of control | – | – |
| CSCC[C@H](N)C(=O)N[C@@H](CCCCN)C(=O)O [MK] (H-Met-Lys-OH) | MK 77.5 % of control | – | – | – | – |
| N[C@@H](Cc1ccc(O)cc1)C(=O)N[C@@H](CC(=O)O)C(=O)O [YD] (H-Tyr-Asp-OH) | – | 88.65 % of control | 86.2 % of control | – | – |
| C[C@@H](O)[C@H](N)C(=O)N[C@H](C(=O)O)[C@@H](C)O [TT] (H-Thr-Thr-OH) | – | – | 91.7 % of control | – | – |
| N[C@@H](Cc1c[nH]c2ccccc12)C(=O)N[C@@H](CO)C(=O)O [WS] (H-Trp-Ser-OH) | – | 54.55 % of control | – | ACE inhibitory activity | – |
| N[C@@H](Cc1c[nH]cn1)C(=O)N[C@@H](Cc1ccccc1)C(=O)O [HF] (H-His-Phe-OH) | 988 % of control | – | – | – | – |
| NCCCC[C@H](NC(=O)[C@@H](N)Cc1ccc(O)cc1)C(=O)O [YK] (H-Tyr-Lys-OH) | – | 77.10 % of control | 85.7 % of control | – | – |
| N[C@@H](Cc1ccc(O)cc1)C(=O)N[C@@H](Cc1c[nH]cn1)C(=O)O [YH] (H-Tyr-His-OH) | – | 43.30 % of control | 80.9 % of control | – | – |
| CC[C@H](C)[C@H](NC(=O)[C@@H](N)C(C)C)C(=O)O [VI] (H-Val-Ile-OH) | – | 72.90 % of control | 73.8 % of control | – | – |
| CC(C)C[C@H](NC(=O)[C@@H](N)Cc1c[nH]c2ccccc12)C(=O)O [WL, Trp-Leu] (H-Trp-Leu-OH) | – | 9.00 % of control | 52.9 % of control | – | – |
| CC(C)[C@H](N)C(=O)N[C@@H](CC(=O)O)C(=O)O [VD] | – | – | 78.6 % of control | – | – |
| N=C(N)NCCC[C@H](NC(=O)[C@@H](N)Cc1c[nH]c2ccccc12)C(=O)O [WR] (H-Trp-Arg-OH) | – | 38.95 % of control | 76.7 % of control | – | – |
| NC(=O)CC[C@H](NC(=O)[C@@H](N)Cc1ccc(O)cc1)C(=O)O [YQ] (H-Tyr-Gln-OH) | – | 75.35 % of control | 83.3 % of control | – | – |
| CC(C)[C@H](NC(=O)[C@@H](N)Cc1c[nH]c2ccccc12)C(=O)O [WV] (H-Trp-Val-OH) | – | 54.00 % of control | 85.4 % of control | – | – |
| N[C@@H](Cc1c[nH]c2ccccc12)C(=O)N[C@@H](Cc1ccc(O)cc1)C(=O)O [WY, Trp-Tyr] (H-Trp-Tyr-OH) | – | 13.85 % of control | 61.5 % of control | – | – |
